The supplement of paper PMC11417369
This is one part of the list.

test system: PF3D7_0420300 AP2 domain 1 (GST-tagged); experiment: gcPBM binding intensity (ln(normalized median fluorescence intensity)); higher = stronger DNA binding
In short: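 Binding intensity is defined as the maximum Masliner-normalised natural-log median intensity across replicate spots for either probe orientation. It was measured on an Agilent 4 × 180k array of primer-extended double-stranded 36-bp intergenic genomic probes and negative controls, to which GST-tagged P. falciparum DNA-binding domains made in E. coli were applied for 1 h in 1× PBS with 1% milk, 0.2 mg/ml BSA, 0.5% salmon testes DNA and 0.03% Triton X-100. Detection was by Alexa488 anti-GST antibody and scanning at 488 nm.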

Sequence | gcPBM binding intensity (ln)
GGCTAAAAGTTGCACACACACAAAAAAAAAAAAAAA [CACACA_site7531] | 9.56
ACCTTAATTATAATAACACACGAAAAGTGGACACAT [CACACA_site1750] | 9.62
TTTTATTTTTAAAATTGTACATTATTATTGTTATTT [XGTACX_site1439] | 9.3
TATTATAGTCCGACTTTTTAATTTCTTTATTGTTTT [CACACA_negctrl_site1381] | 9.41
TGAATATTCATATGCACACAAATTAATATACATAAT [CACACA_site442] | 9.46
AAATTTTAATTAGACTGTACACATTTTAGAATAATT [XGTACX_site4819] | 9.11
TTTTATGTTTTAAAATGTACGTGTCAATGAATAAGT [XGTACX_site6239] | 9.24
TTCGCTGTTTTAATTAGTACTTATATATAATATTAT [XGTACX_site1149] | 9.67
TATTGATATATATATATATATATATGTATATACTTA [GTGCAC_negctrl_site111] | 9.07
CTAAACCTTTTGAGCACACATATATATATATATATA [CACACA_site1782] | 9.19
TTTTTATTTTCATATGTGCACTTATATATATATATA | 9.46
TTTTTATATAAGAAAAAATTATAACAATTTGTTAAT [XGTACX_negctrl_site422] | 8.74
ATGTCACAATTTTTCACACACAAAATTTAAATACAT [CACACA_site5168] | 9.62
TATTATTATATATATAGTACATAAAATATAAAAAAA [XGTACX_site2060] | 9.17
TTTTTTTTTTAAATGTGTCCTCATTATAATATATGT [XGTACX_site5331] | 9.24
TTTTTTAAATTATATTATAGCAAATAAATATTAAAA [CACACA_negctrl_site1655] | 8.62
GCATTATTATATATTTGTACATATTTTTTTTTAAAA [XGTACX_site5436] | 9.37
AATTATATATAAAGAAGTACTATTTCAAGGAGTTTT [XGTACX_site3837] | 9.29
AATAAAACATCATCATGTACAAAATTCGTCTTTGTA [XGTACX_site4821] | 9.21
CAAAATATATATGACACACACAAAAAAAGTATATTA [CACACA_site1589] | 9.87
TCAAATTTTCAACATTGTACATAAATGTATAAATAT [XGTACX_site6042] | 8.97
CAATTTATAAAGAAAACACACATATACATAAATACA [CACACA_site4829] | 9.83
TATATATATGGACACACACACATATATATATATTTT [CACACA_site5409] | 9.96

Sequence | gcPBM binding intensity (ln)
TATATATAATATAGTGCATGTAAAAAATAAACCATG [TGCATGCA_site932] | 9.24
TATAAATTAAAACATTGTACATTTTTATTATTATGT [XGTACX_site579] | 9.16
TATCTTACTTTTTGCACACACTAATATTATTGTTTA [CACACA_site4990] | 9.9
AAAATTAATATCTTGGTGCATTTTTTAATATTATTA [GTGCAC_site9638] | 9.28
ACAACTATTCATCATAGTACACGCATGATATATATA [XGTACX_site1539] | 9.3
TTCAATAGTAAGTATACACACATATAAATAAATAAA [CACACA_site7295] | 9.48
AAAAAAAAAATATATTGTACAATATTGTAGCTATAT [XGTACX_site7180] | 9.3
GCAACCTTGTGCAAATGTACAAAAAAAAAAAAAAAA [XGTACX_site679] | 8.54
TTTTTGTTATTTTTAGTGCAGAAGAATAAATTTTAA | 8.83
AAAATTTCTTATTTTGTACACACAATAAATATTCAC [CACACA_site8464] | 9.4
TTTTTATTGTTGCTATATTTATAACAATTTATCATA [GTGCAC_negctrl_site75] | 9.14
TTTAGATAATTCATTACACACATGTATATATATATA [CACACA_site3483] | 9.38
TAAGGAAGAAGAAAAAGTACTAAAGGTATAAATGCG [XGTACX_site2628] | 9.45
AGAACTTAATGCTGCACACAAAAAAAAGGAAAAATA [CACACA_site1353] | 9.48
TTCTTTAAAATGATATACGTTATAAATATATATATA [XGTACX_negctrl_site256] | 9.07
AACTTGTATATATACACACACACACTGTCTTTTTTT [CACACA_site1963] | 10.2
AAAAAAAAGTTGTAAGTGCATGTATATAATAATATT | 9.36
TGATCACATAATAAATGTACAAAAAAAAATTAATAA [XGTACX_site5867] | 9.06
GCTAGTTCATAAAATTGTACAAAAAAAAAAAAAAAA [XGTACX_site2223] | 8.72
AAAAAAAAAAAAAAAAGTACATGCCATATATTTTCA [XGTACX_site4580] | 9.11
TTTTTTATCTAATATTTTATAATTTTCATAAATTTG [GTGCAC_negctrl_site534] | 9.03
TAAATAATGTTAAACACACATACCGATATATAATTA [CACACA_site2711] | 9.45
AAATAATCTATACACAACGTATAAGAATAATATATG [TGCATGCA_negctrl_site422] | 9.32

Sequence | gcPBM binding intensity (ln)
AATAGAAACATTTTACATGTATATATAATTTTTTTT [XGTACX_negctrl_site190] | 9.12
TATATATAAGAAAAAAGTACAGATATATATATATTC [XGTACX_site4788] | 9.57
TATACAGACAGACACACACACATATATATATATATA [CACACA_site1734] | 9.82
TTTTAAGAAAAAAAATGTACACATGAAAATAGTGAA [XGTACX_site5898] | 9.11
AAATTTTCACTTCAAAAACACACGTATTTTTTTCCT [CACACA_site3813] | 9.25
TGTTATATTATAACTACACACGTATTATGTTATATC [CACACA_site839] | 9.47
AGAATTAAAATAATACGTACACACATGTATAATACA [XGTACX_site1878] | 9.71
ATTATATCTATAATATGTACATATTATAATATATAT [XGTACX_site3211] | 9.17
AATTGTTAATGGTACGAACACACATATAAAGATGCA [CACACA_site2043] | 9.49
ACCTCTCATATGTTATAAACAAAATGAAAATTTCAT [XGTACX_negctrl_site303] | 9.17
ATTTTATTTTATTAAGTGCAAAAAAAAAAAAAGAAA | 8.94
TGTACAATATAAGGAGCACACAAAAATGGATAAATA [CACACA_site8216] | 9.65
ATATGGCATAAAACATGTACATGTTCATAAATATAT [XGTACX_site1924] | 9.26
ATAATAAGAAAAAAAAAAAAAAAAAAAAAAAAAAAA [TGCATGCA_negctrl_site377] | 8.49
ATATTGAAATGTTAATAGAAATATATGGTTAAATTG [XGTACX_negctrl_site212] | 9.25
ATGTATATAAATAGGTGTACATATAAGGTGTTAAGC [XGTACX_site5465] | 9.88
TACACAAACGTTATACGTACACAGGTTTTTCTTTTA [XGTACX_site5427] | 9.37
TCTATTTATATGTATTGTACAATATAGATGTGTATT [XGTACX_site5646] | 9.35
CCTAAATAATATCTATCACACACGCATATATACATA [CACACA_site8838] | 9.56
TTATATTTATATTTATGTACATATTTTGTGTGAAAA [XGTACX_site2367] | 9.18
AAATTAAAAATAATTACACACATAGAAAAATTATAT [CACACA_site2275] | 9.65
GTAATACACAGACACACACACATACACATATTTATA [CACACA_site7313] | 10
AGTGTATATAGAAACATACACACATATTAATTTTAC [CACACA_site3127] | 9.42

Sequence | gcPBM binding intensity (ln)
ATATATATGCATTCAAGTACAAAAATATATGTTAAA [XGTACX_site910] | 9.22
TAGCTGTTCAAAAAATGTACATATATAATATATATA [XGTACX_site5842] | 9.02
TTCTATATATAATATTGTACTTAATTATTTTATTTT [XGTACX_site2701] | 9.31
ATATAATAACATAACACACACATGTATTTATAGGTG [CACACA_site359] | 9.87
ACATTATAATATTATTGTACTATATATATAATATAT [XGTACX_site2291] | 9.18
AAAAAAAAAAAAAAAACACACATATATATATAATAT [CACACA_site1159] | 9.44
GATAATCAGAATGGGGTGCAAAGAAAAAAAAAAAAA | 9.12
TTATTGAACTTTTATAAAACCTGTATTATTATCTCT [CACACA_negctrl_site767] | 9.29
TTATATTAATAATAAAGTACAAAAAATCATATATAA [XGTACX_site799] | 9.22
TCCAGGCTACACTCTAGTACTCGTAGGGTTATGAGA [XGTACX_site4945] | 9.09
TATTTCTTATTACATACACACATATACATATATGAC [CACACA_site3201] | 9.57
ATATATATATATATATGTACATATGTTAGGATCAAA [XGTACX_site8626] | 9.35
ATGACATATAAATATACACACATACGTAAGTATATT [CACACA_site5058] | 9.36
TACATACTAAAAAAATGTACTTGTATTGTTTTTTTA [XGTACX_site8357] | 9.03
GAAATATTTGTAAAAACATGCATGGTACTTTTAAAA [TGCATGCA_site6] | 9.2
ACATAAGAATTTTTATGTACTCATAATATTTTATAT [XGTACX_site2398] | 8.98
TTATTTAACGTATTCTCACACATATATATATATAAT [CACACA_site5226] | 9.35
TATATATATATATACACATGCAAAAATTTTTAATTT [TGCATGCA_site82] | 9.29
TTTCTATATGGATTTGCACACATAAAAATGCTTATA [CACACA_site8751] | 9.37
TCTTTAATGATGTGTACACAAGAAAACATTGTTAAG [CACACA_site5299] | 9.26
